# Test results: PubChem BioAssay AID504333 (National Center for Advancing Translational Sciences (NCATS), 2011)
# Among all 360,000 compounds or so, about 16,000 (4.4%) were called active. This list was built around the results that the source calls inconclusive (neither active nor inactive); the mix of calls is not that of the screen. The call rests on the fitted dose curve; in most records, active means well fitted inhibition curve with a large enough effect; inconclusive means small, poorly fitted or top-dose-only effect; inactive means no such curve, though single readings can be large or run the other way. Potencies beside an inconclusive call are fits to weak or partial responses and may not hold up.
# Target: Bromodomain adjacent to zinc finger domain protein 2B (Homo sapiens) (UniProt Q9UIF8)
# UniProt Q9UIF8, sequence (Q9UIF8 whole entry, looked up, the tested form may be a part): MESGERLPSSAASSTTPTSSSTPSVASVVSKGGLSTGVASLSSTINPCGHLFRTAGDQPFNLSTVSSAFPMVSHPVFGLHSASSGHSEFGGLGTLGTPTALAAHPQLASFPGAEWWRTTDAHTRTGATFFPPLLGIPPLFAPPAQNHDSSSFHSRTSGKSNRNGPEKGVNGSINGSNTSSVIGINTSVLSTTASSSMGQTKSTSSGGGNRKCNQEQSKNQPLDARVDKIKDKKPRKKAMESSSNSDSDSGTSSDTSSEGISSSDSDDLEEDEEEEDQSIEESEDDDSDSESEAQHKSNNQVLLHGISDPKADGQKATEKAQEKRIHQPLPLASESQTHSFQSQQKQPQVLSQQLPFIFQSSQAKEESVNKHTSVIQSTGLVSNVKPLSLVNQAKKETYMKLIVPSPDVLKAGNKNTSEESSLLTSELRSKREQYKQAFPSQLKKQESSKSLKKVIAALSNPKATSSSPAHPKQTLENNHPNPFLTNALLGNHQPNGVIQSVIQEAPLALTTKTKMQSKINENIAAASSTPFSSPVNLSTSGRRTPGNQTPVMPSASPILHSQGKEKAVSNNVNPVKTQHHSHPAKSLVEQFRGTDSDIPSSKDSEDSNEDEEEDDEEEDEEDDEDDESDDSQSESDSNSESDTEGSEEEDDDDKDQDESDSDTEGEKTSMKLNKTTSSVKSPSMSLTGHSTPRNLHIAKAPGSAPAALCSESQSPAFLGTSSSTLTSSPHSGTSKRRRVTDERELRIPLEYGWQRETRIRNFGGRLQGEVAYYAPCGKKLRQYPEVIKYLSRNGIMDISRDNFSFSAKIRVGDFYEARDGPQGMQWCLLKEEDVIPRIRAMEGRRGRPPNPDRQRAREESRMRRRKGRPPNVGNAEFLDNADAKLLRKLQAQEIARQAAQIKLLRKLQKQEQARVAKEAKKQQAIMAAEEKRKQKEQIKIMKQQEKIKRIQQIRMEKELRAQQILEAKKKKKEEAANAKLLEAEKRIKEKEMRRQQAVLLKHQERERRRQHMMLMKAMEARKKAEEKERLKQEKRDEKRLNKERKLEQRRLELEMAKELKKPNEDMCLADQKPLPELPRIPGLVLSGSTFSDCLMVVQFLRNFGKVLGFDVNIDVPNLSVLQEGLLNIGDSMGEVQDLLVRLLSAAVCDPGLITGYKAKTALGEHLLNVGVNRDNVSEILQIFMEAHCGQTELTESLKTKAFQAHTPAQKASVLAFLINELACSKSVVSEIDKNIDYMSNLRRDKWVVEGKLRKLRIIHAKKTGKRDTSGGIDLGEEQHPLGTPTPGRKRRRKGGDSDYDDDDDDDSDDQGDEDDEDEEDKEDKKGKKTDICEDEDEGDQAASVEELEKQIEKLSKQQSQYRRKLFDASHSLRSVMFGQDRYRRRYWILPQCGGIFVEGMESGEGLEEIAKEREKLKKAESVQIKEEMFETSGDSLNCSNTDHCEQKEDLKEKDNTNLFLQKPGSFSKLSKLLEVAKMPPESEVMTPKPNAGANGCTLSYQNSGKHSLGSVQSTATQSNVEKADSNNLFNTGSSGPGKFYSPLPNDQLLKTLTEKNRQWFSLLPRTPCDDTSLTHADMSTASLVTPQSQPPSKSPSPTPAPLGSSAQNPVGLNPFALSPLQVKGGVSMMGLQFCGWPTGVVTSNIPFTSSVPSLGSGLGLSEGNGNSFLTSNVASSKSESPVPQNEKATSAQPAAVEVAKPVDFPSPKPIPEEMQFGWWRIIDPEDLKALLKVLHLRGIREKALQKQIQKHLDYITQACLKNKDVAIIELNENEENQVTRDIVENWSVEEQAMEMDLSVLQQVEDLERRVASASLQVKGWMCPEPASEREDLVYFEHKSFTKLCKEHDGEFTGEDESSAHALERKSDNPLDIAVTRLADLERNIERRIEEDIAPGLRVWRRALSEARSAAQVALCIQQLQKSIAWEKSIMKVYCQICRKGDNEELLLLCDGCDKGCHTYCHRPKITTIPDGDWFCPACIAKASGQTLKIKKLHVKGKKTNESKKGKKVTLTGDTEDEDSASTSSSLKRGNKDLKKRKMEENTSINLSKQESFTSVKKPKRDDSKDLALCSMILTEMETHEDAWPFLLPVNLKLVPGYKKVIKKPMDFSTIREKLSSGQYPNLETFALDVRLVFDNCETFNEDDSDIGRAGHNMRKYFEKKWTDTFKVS
# Assay: qHTS Assay for Inhibitors of BAZ2B; further: nearly all actives have a fitted effect of over 60% in size
# Conditions: AlphaScreen BAZ2B-H3K14Ac peptide displacement; series mostly up to 114 µM
# In short: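 Inhibition is scored as reduced AlphaScreen emission. The BAZ2B/b-H3(5-23)K14Ac complex (50 nM each) in PBS pH 7.4, 0.01% Tween-20 meets compound (up to 110 uM) for 30 min at RT before bead addition.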
# Potency means the concentration at half of the fitted maximal effect; tags describe the fitted curve by direction and shape.
row,SMILES,Potency
1,CCOC(=O)c1c(C)n(-c2ccccc2)c2ccc(OCCN(C)C)cc12,"inconclusive: 79.4 µM [inhibitor, single point]"
2,CN(C)c1ccc(NC(=O)c2ccc(Cn3cc([N+](=O)[O-])cn3)cc2)cc1,active: 25.1 µM
3,O=C(NC(=S)Nc1cccc(C(F)(F)F)c1)c1ccc2nonc2c1,"inconclusive: 20 µM [inhibitor, full curve]"
4,CCCN1C(=O)/C(=C/c2ccc(C)s2)SC1=Nc1ccc(OC)cc1,"inconclusive: 35.5 µM [inhibitor, partial curve]"
5,CN1CCN(/N=C/c2nc(-c3ccccc3)n3ccccc23)CC1,"inconclusive: 50.1 µM [inhibitor, partial curve]"
6,CC(=O)Nc1ccccc1OCC(=O)NC1CCCCC1C (centres undefined),inactive
7,Cc1c(OC(C)C(=O)NCc2ccncc2)ccc2c3c(c(=O)oc12)CCC3 (centres undefined),inactive
8,O=C(CCn1cccn1)Nc1ccc2c(c1)OCO2,"inconclusive: 56.2 µM [inhibitor, partial curve]"
9,CC1CCCC(NC(=O)C2CCC(CNc3c(N4CCCC4)c(=O)c3=O)CC2)C1C (centres undefined),inactive
10,O=[N+]([O-])c1ccc2nc(-c3ccccn3)[nH]c2c1,"inconclusive: 100 µM [inhibitor, partial curve]"
11,O=C1C(Cl)=C(NCc2cccnc2)C(=O)c2ccccc21,active: 50.1 µM
12,CCc1ccc(NC(=S)/N=C(\N)Nc2nc(C)c3cc(CC)ccc3n2)cc1,inactive
13,CC(C)c1ccc(NC(=O)C2CCCCN2S(=O)(=O)c2ccccc2)cc1 (centres undefined),inactive
14,Cc1ccc(-c2cn3c(n2)sc2cc(C(=O)N4CCCCC4)ccc23)cc1,"inconclusive: 79.4 µM [inhibitor, single point]"
15,CC(C)c1onc(C(=O)N(C)Cc2ccccc2)c1[N+](=O)[O-],"inconclusive: 56.2 µM [inhibitor, partial curve]"
16,O=C(O)CCC(=O)N1N=C(c2ccccc2)CC1c1ccc(Br)cc1 (centres undefined),"inconclusive: 89.1 µM [inhibitor, single point]"
17,O=C(NCCCn1ccnc1)C(=O)NCC1OCCN1S(=O)(=O)c1ccccc1 (centres undefined),active: 22.4 µM
18,CN(C)c1ccc(CN(C(=O)c2ccc(Cl)c([N+](=O)[O-])c2)C2CCS(=O)(=O)C2)cc1 (centres undefined),"inconclusive: 50.1 µM [inhibitor, partial curve]"
19,Cc1ccc(NC(=O)c2cc(C)n(-c3ccccc3)c2C)cc1,"inconclusive: 44.7 µM [inhibitor, partial curve]"
20,Cc1nc(NCc2ccco2)c2c(C)c(C)sc2n1,active: 28.2 µM
21,Cc1ccc(NC(=O)Cn2c(CCC(=O)O)ccc2-c2cccs2)cc1,"inconclusive: 79.4 µM [inhibitor, partial curve]"
22,Cc1ccc(OCc2ccccc2Br)c([N+](=O)[O-])n1,inactive
23,Cc1[nH]c(=O)[nH]c(=O)c1C1N2CC3(C(C)C)CN1CC(C(C)C)(C2)C3=O (centres undefined),inactive
24,COC(=O)C(NC(=O)c1ccc(F)cc1)(Nc1ncc(S(=O)(=O)c2ccc([N+](=O)[O-])cc2)s1)C(F)(F)F (centres undefined),"inconclusive: 39.8 µM [inhibitor, partial curve]"
25,Cc1ccc(N2CCn3c2nc2c3c(=O)n(CCc3ccccc3)c(=O)n2C)cc1C,inactive

row,SMILES,Potency
1,CCC1CCCCN1C(=O)CSc1nc2c(cnn2-c2ccc(C)cc2)c(=O)[nH]1 (centres undefined),inactive
2,CCOC(=O)c1ccc(NC(=O)CN2C(=O)c3cccnc3Oc3ccc(Cl)cc32)cc1,"inconclusive: 89.1 µM [inhibitor, single point]"
3,COc1cccc(=O)c2c(C)n(-c3cc(C)cc(C)c3)c(C)c12,"inconclusive: 89.1 µM [inhibitor, single point]"
4,NC(=O)C1CCN(C(=O)CCSCc2ccccc2)CC1,inactive
5,CCOc1ccc(NC(=O)N2CCOc3ccccc32)cc1,inactive
6,Cn1cccc1/C=N/NC(=O)Cn1cnc2ccccc21,"inconclusive: 79.4 µM [inhibitor, single point]"
7,NC(=S)n1[nH]c(-c2ccc([N+](=O)[O-])cc2)c(N=Nc2cccc(Cl)c2)c1=O,"inconclusive: 28.2 µM [inhibitor, partial curve]"
8,CCc1ccccc1NC(=O)CSc1nnc(-c2nonc2NC(C)=O)n1C,inactive
9,CCCc1cc(=O)n2[nH]c(-c3cccc(Br)c3)cc2n1,"inconclusive: 89.1 µM [inhibitor, single point]"
10,CSc1nsc(SCC(=O)Nc2ccc(Br)cn2)n1,"inconclusive: 89.1 µM [inhibitor, single point]"
11,COCCNC(=O)C1=C(N)C(C(=O)Nc2ccc(C)c(S(=O)(=O)N3CCCCC3)c2)SC1=Nc1ccc(C)cc1C (centres undefined),inactive
12,Cc1ccc(-c2cc(C(=O)N/N=C/c3c[nH]c4ccccc34)n[nH]2)o1,"inconclusive: 79.4 µM [inhibitor, single point]"
13,O=C(NNc1ncnc2c1cnn2-c1ccccc1)c1cccc(Cl)c1,inactive
14,CCN(CC)c1ccc(C2CC(=O)NC3=C2C(=O)CC(C)(C)C3)cc1 (centres undefined),inactive
15,CCN(CC)C(=O)CC(c1ccc(N(C)C)cc1)c1c(OC)cc(OC)c2c(-c3ccccc3)cc(=O)oc12 (centres undefined),active: 20 µM
16,COc1ccc(OC)c(-c2nc(C(=O)NCC3CCCO3)cc3c2[nH]c2ccccc23)c1 (centres undefined),"inconclusive: 39.8 µM [inhibitor, single point]"
17,Cc1cc(C(=O)CSc2nncs2)c(C)n1-c1ccc2c(c1)OCO2,active: 44.7 µM
18,Cc1ccc(OCCSc2nc3ccccc3n2CC(=O)N2CCOCC2)c(C)c1,"inconclusive: 89.1 µM [inhibitor, single point]"
19,CC(=O)c1c(C)[nH]c(C(=O)OCC(=O)Nc2cccc(S(=O)(=O)N(C)C)c2)c1C,active: 50.1 µM
20,COc1ccc(CCNC(=O)CN2CCC(C)CC2)cc1OC,active: 56.2 µM
21,S=c1c2c(nc3nc[nH]n13)CCC2,active: 44.7 µM
22,CCC1CCCCN1S(=O)(=O)c1ccc([N+](=O)[O-])cc1 (centres undefined),"inconclusive: 89.1 µM [inhibitor, single point]"
23,CCn1c2ccccc2c2cc(CN3CCN(C(=O)c4ccco4)CC3)ccc21,"inconclusive: 89.1 µM [inhibitor, single point]"
24,Cc1ccc(-n2c([O-])nc(-[n+]3ccccc3)c2C=O)cc1,"inconclusive: 100 µM [inhibitor, single point]"
25,CN(Cc1c(F)cccc1Cl)C(=O)c1ccc2ccccc2n1,inactive

row,SMILES,Potency
1,CCn1ccnc1CNC(=O)c1ccc2oc(CCCc3ccccc3)nc2c1,"inconclusive: 50.1 µM [inhibitor, partial curve]"
2,COc1ccc(Nc2nc(NCc3ccco3)nc(N/N=C/c3ccc(O)cc3)n2)cc1,active: 22.4 µM
3,C=CCNc1scc(-c2ccccc2)[n+]1CC=C,active: 10 µM
4,N=C1/C(=C/c2ccc(OCc3ccccc3)cc2)C(=O)N=C2SC(CC(=O)N3CCOCC3)=NN12,"inconclusive: 25.1 µM [inhibitor, single point]"
5,COc1ccc(N2CCN(C(=O)CCc3c(C)nn(-c4ccc(N5CCCC5)nn4)c3C)CC2)cc1,"inconclusive: 89.1 µM [inhibitor, single point]"
6,CCC1CCC(C(=O)NC(CCSC)C(=O)NCCN(CC(C)C)CC(C)C)CC1 (centres undefined),"inconclusive: 89.1 µM [inhibitor, single point]"
7,COc1ccc2ccccc2c1-c1sc(Nc2ccccc2)n[n+]1-c1ccc(F)cc1,active: 31.6 µM
8,COC(=O)c1[nH]c2ccc(C)cc2c1NC(=O)CN1CCCc2ccccc21,"inconclusive: 31.6 µM [inhibitor, full curve, poor fit]"
9,Cc1ccccc1S(=O)(=O)Cc1ccc(C(=O)NCCCN(C)Cc2ccccc2)o1,inactive
10,CC(=O)c1c(C)[nH]c(C(=O)NC(C)c2ccccc2)c1C (centres undefined),inactive
11,COC(=O)c1nnn(-c2nc(N3CCOCC3)nc(N3CCOCC3)n2)c1C,inactive
12,C=CCn1c(C)cc(-c2csc(NC(=O)CCc3nc4ccccc4c(=O)[nH]3)n2)c1C,"inconclusive: 89.1 µM [inhibitor, single point]"
13,CC1(C)CC(Cc2nc(=S)[nH][nH]2)C(=O)O1 (centres undefined),"inconclusive: 89.1 µM [inhibitor, single point]"
14,COc1ccccc1CNC(=O)CCn1c(=O)c2ccccc2n(CC(=O)Nc2cccc(Cl)c2)c1=O,active: 79.4 µM
15,Cc1cccc(N2CCN(C(=O)c3cc(S(=O)(=O)N4CCOCC4)cn3C)CC2)c1C,"inconclusive: 50.1 µM [inhibitor, partial curve]"
16,CCNc1[nH]c(=O)n(C)c(=O)c1N=O,"inconclusive: 89.1 µM [inhibitor, single point]"
17,CCOC(=O)c1cc(-c2ccccc2)n(-c2cccc(C(=O)Nc3ccc(F)c(F)c3)c2)c1C,"inconclusive: 22.4 µM [inhibitor, full curve]"
18,COc1c(C)cc(S(=O)(=O)NCCc2c(C)[nH]c3ccccc23)c(C)c1C,active: 39.8 µM
19,COCCn1c(C)cc(C(=O)CSc2cc(C)c3ccccc3n2)c1C,"inconclusive: 31.6 µM [inhibitor, full curve]"
20,CCC1=NNc2cccc3c(OC)ccc1c23,active: 28.2 µM
21,Cc1n[nH]c(=O)c2c(NC(=O)CSc3nnc(-c4ccncc4)n3C)oc(C)c12,inactive
22,CCOc1ccc(N2CC(c3nc4ccccc4n3Cc3cccc(Cl)c3)CC2=O)cc1 (centres undefined),inactive
23,C/C(=N\NC(=S)NCC(C)(C)C)c1cc(F)cc(F)c1O,active: 7.08 µM
24,CCOc1ccc(S(=O)(=O)N2CCOCC2)cc1NS(=O)(=O)c1ccc(OC)c([N+](=O)[O-])c1,inactive
